# From the supplement of paper PMC8728848
# Some of the results follow.
# B1: AMA (Arum maculatun) (protein)
# chain: MAKLLLLLLLPAIVGLAVPRSAAAVGSNYMLSGETLNTDGRLTNGELTLIMQVDCNLVLYHGGWQSNTANNGRDCKLTLTDFGELVIKSGTGSTVWSSGSKQSMKGNYAAVVHPEGRLVIYGPSVFKINPSGAGLNGLPLRNIPLTNNMLFSGQVLYGDGTLSARNHKLVMQGDCNMVLYGGKYGWQSNTHGNGKYCFAMLTHKGELVIRDDDFKSVWSSKSSSKQGDYVFILQDDSLAIIYGPAVFSTGSKKMISMVTN
# Key:
# Test in all cases: glycan array binding signal (z-score within array); higher = stronger binding
# Conditions in all cases: glycan notation: IUPAC condensed, linker removed
# [1] = biological target: Fuc(a1-2)[Gal(a1-3)]Gal(b1-4)GlcNAc(b1-2)Man
# How it was run: (§1)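 From the Consortium for Functional Glycomics database, 3228 arrays were curated, keeping only those whose protein sequence was available. Binding is given as a within-array Z-score averaged across arrays sharing a protein sequence and across linkers. Negative Z-scores can be read as non-binding.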
# [2] = biological target: Fuc(a1-2)[Gal(a1-3)]Gal(b1-4)GlcNAc(b1-2)Man(a1-3)[Fuc(a1-2)[Gal(a1-3)]Gal(b1-4)GlcNAc(b1-2)Man(a1-6)]Man(b1-4)GlcNAc(b1-4)GlcNAc
# How it was run: as §1
# [3] = biological target: Fuc(a1-2)[Gal(a1-3)]Gal(b1-4)GlcNAc(b1-2)Man(a1-3)[Fuc(a1-2)[Gal(a1-3)]Gal(b1-4)GlcNAc(b1-2)Man(a1-6)]Man(b1-4)GlcNAc(b1-4)[Fuc(a1-6)]GlcNAc
# How it was run: as §1
# [4] = biological target: Fuc(a1-2)[Gal(a1-3)]Gal(b1-4)GlcNAc(b1-3)GalNAc
# How it was run: as §1
# [5] = biological target: Fuc(a1-2)[Gal(a1-3)]Gal(b1-4)GlcNAc(b1-6)GalNAc
# How it was run: as §1
# [6] = biological target: Fuc(a1-2)[Gal(a1-3)]Gal(b1-4)[Fuc(a1-3)]Glc
# How it was run: as §1
# [7] = biological target: Fuc(a1-2)[Gal(a1-3)]Gal(b1-4)[Fuc(a1-3)]GlcNAc
# How it was run: as §1
# [8] = biological target: Fuc(a1-2)[Gal(a1-3)]Gal(b1-4)[Fuc(a1-3)]GlcNAc(b1-3)GalNAc
# How it was run: as §1
# [9] = biological target: Fuc(a1-2)[Gal(a1-4)]Gal(b1-4)GlcNAc
# How it was run: as §1
# [10] = biological target: Fuc(a1-2)[GalNAc(a1-3)]Gal
# How it was run: as §1
# [11] = biological target: Fuc(a1-2)[GalNAc(a1-3)]Gal(b1-3)GalNAc(a1-3)[Fuc(a1-2)]Gal(b1-4)GlcNAc
# How it was run: as §1
# [12] = biological target: Fuc(a1-2)[GalNAc(a1-3)]Gal(b1-3)GalNAc(b1-3)Gal(a1-4)Gal(b1-4)Glc
# How it was run: as §1
# [13] = biological target: Fuc(a1-2)[GalNAc(a1-3)]Gal(b1-3)GlcNAc
# How it was run: as §1
# [14] = biological target: Fuc(a1-2)[GalNAc(a1-3)]Gal(b1-3)GlcNAc(b1-2)Man(a1-3)[Fuc(a1-2)[GalNAc(a1-3)]Gal(b1-3)GlcNAc(b1-2)Man(a1-6)]Man(b1-4)GlcNAc(b1-4)GlcNAc
# How it was run: as §1
# [15] = biological target: Fuc(a1-2)[GalNAc(a1-3)]Gal(b1-3)GlcNAc(b1-2)Man(a1-3)[Fuc(a1-2)[GalNAc(a1-3)]Gal(b1-3)GlcNAc(b1-2)Man(a1-6)]Man(b1-4)GlcNAc(b1-4)[Fuc(a1-6)]GlcNAc
# How it was run: as §1
# [16] = biological target: Fuc(a1-2)[GalNAc(a1-3)]Gal(b1-3)GlcNAc(b1-3)GalNAc
# How it was run: as §1
# [17] = biological target: Fuc(a1-2)[GalNAc(a1-3)]Gal(b1-3)GlcNAc(b1-6)GalNAc
# How it was run: as §1
# [18] = biological target: Fuc(a1-2)[GalNAc(a1-3)]Gal(b1-4)Glc
# How it was run: as §1
# [19] = biological target: Fuc(a1-2)[GalNAc(a1-3)]Gal(b1-4)GlcNAc
# How it was run: as §1
# [20] = biological target: Fuc(a1-2)[GalNAc(a1-3)]Gal(b1-4)GlcNAc(b1-2)Man
# How it was run: as §1
# [21] = biological target: Fuc(a1-2)[GalNAc(a1-3)]Gal(b1-4)GlcNAc(b1-2)Man(a1-3)[Fuc(a1-2)[GalNAc(a1-3)]Gal(b1-4)GlcNAc(b1-2)Man(a1-6)]Man(b1-4)GlcNAc(b1-4)GlcNAc
# How it was run: as §1
# [22] = biological target: Fuc(a1-2)[GalNAc(a1-3)]Gal(b1-4)GlcNAc(b1-2)Man(a1-3)[Fuc(a1-2)[GalNAc(a1-3)]Gal(b1-4)GlcNAc(b1-2)Man(a1-6)]Man(b1-4)GlcNAc(b1-4)[Fuc(a1-6)]GlcNAc
# How it was run: as §1
# [23] = biological target: Fuc(a1-2)[GalNAc(a1-3)]Gal(b1-4)GlcNAc(b1-3)Gal(b1-4)GlcNAc
# How it was run: as §1
# [24] = biological target: Fuc(a1-2)[GalNAc(a1-3)]Gal(b1-4)GlcNAc(b1-3)Gal(b1-4)GlcNAc(b1-3)Gal(b1-4)GlcNAc
# How it was run: as §1
# [25] = biological target: Fuc(a1-2)[GalNAc(a1-3)]Gal(b1-4)GlcNAc(b1-3)GalNAc
# How it was run: as §1
# [26] = biological target: Fuc(a1-2)[GalNAc(a1-3)]Gal(b1-4)GlcNAc(b1-3)[Fuc(a1-2)[GalNAc(a1-3)]Gal(b1-4)GlcNAc(b1-6)]GalNAc
# How it was run: as §1
# [27] = biological target: Fuc(a1-2)[GalNAc(a1-3)]Gal(b1-4)GlcNAc(b1-6)GalNAc
# How it was run: as §1
# [28] = biological target: Fuc(a1-2)[GalNAc(a1-3)]Gal(b1-4)[Fuc(a1-3)]GlcNAc
# How it was run: as §1
# [29] = biological target: Fuc(a1-2)[GalNAc(a1-3)]Gal(b1-4)[Fuc(a1-3)]GlcNAc(b1-3)GalNAc
# How it was run: as §1
# [30] = biological target: Fuc(a1-2)[GalNAc(a1-4)]Gal(b1-4)GlcNAc
# How it was run: as §1
# [31] = biological target: Fuc(a1-2)[GalNAc(b1-3)]Gal
# How it was run: as §1
# Fuc(a1-3)GlcNAc = biological target: Fuc(a1-3)GlcNAc
# How it was run: as §1
# [32] = biological target: Fuc(a1-3)[Gal(b1-4)]Glc6S
# How it was run: as §1
# [33] = biological target: Fuc(a1-3)[Gal(b1-4)]GlcNAc
# How it was run: as §1
# [34] = biological target: Fuc(a1-3)[Gal(b1-4)]GlcNAc(b1-2)Man
# How it was run: as §1
# [35] = biological target: Fuc(a1-3)[Gal(b1-4)]GlcNAc(b1-2)Man(a1-3)[Fuc(a1-3)[Gal(b1-4)]GlcNAc(b1-2)Man(a1-6)]Man(b1-4)GlcNAc(b1-4)GlcNAc
# How it was run: as §1
# [36] = biological target: Fuc(a1-3)[Gal(b1-4)]GlcNAc(b1-2)Man(a1-3)[Fuc(a1-3)[Gal(b1-4)]GlcNAc(b1-2)Man(a1-6)]Man(b1-4)GlcNAc(b1-4)[Fuc(a1-6)]GlcNAc
# How it was run: as §1
binder,measurement,setting,value
B1,glycan array binding signal (z-score),[1],-0.215
same,glycan array binding signal (z-score),[2],0.463
same,glycan array binding signal (z-score),[3],1.04
same,glycan array binding signal (z-score),[4],-0.187
same,glycan array binding signal (z-score),[5],-0.214
same,glycan array binding signal (z-score),[6],-0.214
same,glycan array binding signal (z-score),[7],-0.211
same,glycan array binding signal (z-score),[8],-0.211
same,glycan array binding signal (z-score),[9],-0.207
same,glycan array binding signal (z-score),[10],-0.219
same,glycan array binding signal (z-score),[11],-0.215
same,glycan array binding signal (z-score),[12],-0.22
same,glycan array binding signal (z-score),[13],-0.218
same,glycan array binding signal (z-score),[14],0.844
same,glycan array binding signal (z-score),[15],0.701
same,glycan array binding signal (z-score),[16],-0.217
same,glycan array binding signal (z-score),[17],-0.216
same,glycan array binding signal (z-score),[18],-0.213
same,glycan array binding signal (z-score),[19],-0.08
same,glycan array binding signal (z-score),[20],-0.221
same,glycan array binding signal (z-score),[21],-0.207
same,glycan array binding signal (z-score),[22],-0.026
same,glycan array binding signal (z-score),[23],-0.219
same,glycan array binding signal (z-score),[24],-0.173
same,glycan array binding signal (z-score),[25],-0.212
same,glycan array binding signal (z-score),[26],-0.217
same,glycan array binding signal (z-score),[27],-0.222
same,glycan array binding signal (z-score),[28],-0.204
same,glycan array binding signal (z-score),[29],-0.204
same,glycan array binding signal (z-score),[30],-0.211
same,glycan array binding signal (z-score),[31],-0.214
same,glycan array binding signal (z-score),Fuc(a1-3)GlcNAc,-0.221
same,glycan array binding signal (z-score),[32],-0.206
same,glycan array binding signal (z-score),[33],-0.217
same,glycan array binding signal (z-score),[34],-0.213
same,glycan array binding signal (z-score),[35],0.429
same,glycan array binding signal (z-score),[36],-0.205
